In the supplement of paper PMC10126150:
Values marked as one replicate rest on one cluster of the flow cell; about a third of the high ones do not repeat.

System: ATP
Assay: switch fluorescence ratio, 500 uM ATP over buffer (Cy3 cluster intensity, sum of 5 cycles each) (fold (ratio)); higher = stronger signal-on switching upon ATP binding; sequences stand for … in TCGTCGGCAGCGTCAGATGTGTATAAGAGACAGTTTTTTTTTTTTTTTTTTTTTTTTT…TC
Conditions: aptamer strand: ATP DNA aptamer (quencher-CACCTGGGGGAGTATTGCGGAGGAAGG + anchor), 100 nM annealed; ATP concentration: 500 uM; one replicate
Procedure, shortened: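 Imaging in selection buffer was followed by imaging after 15 min with 500 uM ATP at 22 °C, for Cy3-labelled switching-strand clusters annealed to 100 nM quencher-labelled ATP aptamer on a modified Illumina MiSeq flow-cell. Five of these buffer/ATP cycles ran, separated by NaOH stripping and re-annealing. The fluorescence ratio per cluster is summed target-cycle over summed buffer-cycle Cy3 intensity, averaged per switch-domain sequence; clusters outside 100-1000 RFU were removed.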
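Note: ATP exposure 15 min at 22 °C before imaging.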

Sequence | switch fluorescence ratio
TCTGTCTGGA | 0.969
AGTGTAACA | 1.03
CGGTAGTCTC | 1.02
TGGTAAGGAA | 1.01
TTTCTAATCA | 1.03
TTTTTCTCCA | 1.03
TAGGGGAGTC | 1.01
AGGATCATTA | 0.976
AGATAAAGAT | 1.01
ACGTTCGGTG | 1.03
GGGTCAACTG | 1.07
CTGGCTCTAT | 1.02
ATTAGCTTGA | 0.981
TGACACATGT | 1.04
AACGTCGCG | 1.03
TGAGGTCTGG | 0.981
CCGAGTGTTG | 1.03
ATTATGCAAG | 0.997
GACTGTGGTA | 1
CTTGGTTTC | 0.978
ACGATCATAA | 1.04
CGTCGATTAC | 2.39
TCAGGAAGTC | 2.02
ATTAAGGGAT | 1.02
CGTTCAACCA | 1.03
GCGGAAACCA | 1.04

Sequence | switch fluorescence ratio
GTCAGGTTAC | 1.04
AACTCTCATA | 0.992
ACCGCTGGCA | 1.06
TATTGGAATC | 1
ACTCGTTCAG | 1
GTATGCGTAG | 0.999
ACATCAGGGC | 1.04
GGGCGAGAGT | 0.998
TTCGAGTATC | 1
TGATAGTCAT | 1.02
GCGCTTTTGT | 0.986
AACACAATCA | 1.03
GAAGTCAACG | 0.971
ATGCTTTCAC | 1.03
AGACCGTGGT | 1.01
GACTTTGGTT | 1.01
TGATTTCTGA | 0.99
CGCAACTTAG | 2.19
TAAAAGTCAA | 0.993
GACATGTCGA | 0.957
TTAATGCCTT | 1.12
CTGGCCCGCA | 2.08
ATATGATTAA | 0.966
TGAGTTCAG | 0.969
GTTCAGCGCT | 1.03
GCGATGTGTT | 1

Sequence | switch fluorescence ratio
TTCAGGGACC | 1
TCGCCCGGGT | 1.11
CCTGAATTTG | 0.967
CACAACCCGC | 1.07
TGCTTTGGGT | 1.02
CTCGGGTTGT | 1.01
TGTTGAGCGA | 1.05
AGTTTGTGGA | 1.06
GCGATCCGCC | 1.05
GACACGGGG | 1.17
AAATGGCACT | 1.05
AACAAAGA | 0.985
GGGATGAGCC | 1.06
TGGAGGGTAA | 0.985
TCCAACTTG | 0.994
TCGATTTCTG | 0.99
AACAGGATGT | 0.978
CTCGTCTGT | 0.972
AGTTTATCTC | 1.05
ACGATCTAAT | 1.04
AGAAAGGCAT | 0.975
ATGTTTGGG | 0.967
TGGGACAGGT | 1.04
ATTTAGTGCA | 1.07
ACAAGTTAAA | 0.956
ATGGTCGGTT | 0.977

Sequence | switch fluorescence ratio
AACCGTGCTT | 1.07
TTAAGGTATA | 1.04
AGGCAGACCA | 0.97
ACGCCAGCCA | 1.11
GTTGCTGTAT | 1.03
CCTGTCTCTA | 1
TTTTAATATC | 1.01
GGTAAGGGAG | 0.994
ATATACATAT | 1.1
TGACCGTCAG | 0.915
CCTTTTGTTG | 0.96
GCTTGGGTTG | 1.05
ATCGGGATCG | 0.988
TGTTTTGATA | 0.982
ACGTTCGCAG | 1.13
GCAGCGCGCT | 0.972
GGTCTCCGT | 0.965
CAGGTTGATT | 0.994
AGAGATTTT | 0.99
GTGGCAGGGT | 0.918
TTTAAGAATG | 0.98
TGGCTTACA | 1
ATCTTTTGTG | 0.933
TTTGTACTTA | 1.03
ATATGTATTA | 0.96
CATCTACTTT | 1

Sequence | switch fluorescence ratio
AGACGATAAG | 0.96
GGATGCGGGG | 0.989
AACGGGCGGA | 1.04
TAAGTAGGCT | 0.981
TAAATCGAA | 1.01
AGACTGGGAT | 0.948
CAAACGTCCT | 1.04
TGGAGTAAAC | 1.22
TGGTACTTCC | 1.67
TATAGTCTAG | 0.971
CTTCAGACTG | 1.09
GATACAGGCG | 1.05
CGACGTAACC | 2.46
ATTTGGAAGC | 1.02
ATTTTGCCTG | 1.04
GTTCTTTG | 0.974
GCGGTAACTG | 1.16
AAGTCCTTT | 0.964
CCGTGGGACA | 1.06
TAAGCGCCGT | 1.08
GTGTGCACGG | 0.95
ACGTCTATTG | 1.03
CCTAGGTCAC | 1.06
TTCTTCGAGG | 1.02
AGGGGAAGCA | 1
CCAGCATCAT | 1

Sequence | switch fluorescence ratio
CAGCGGGCTA | 1.04
TTGATAGCGC | 1.1
TCATCAGGTT | 1.05
TTTGGTTCGT | 0.997
TATAGAGCTG | 0.864
TATCACCTCC | 1.24
CCAATAAGCT | 1.04
TACATAGCGT | 1.05
CGTTGGGGAA | 0.999
TACATACGGG | 1.46
TTGAGTCTCA | 1.01
GCCCCGGGT | 0.981
CTCTGCACCT | 2.84
TCACTGAGGG | 1.05
GGCGATCCTC | 1.12
AGGTCTTAGT | 0.988
CGGGATGGGT | 0.998
TTCATTCGAC | 1.04
ATGGCGGAT | 1.09
GTTAGGCGGA | 0.995
CGCAGTTCGG | 1.15
TTACGCTTAA | 1.11
GAAAAGGTGA | 0.967
